Results are given in words; binding and its absence hold for the method and conditions named. Binding seen in cells or lysates may run through a third protein. Some results given as binding are weak or reduced against the parent protein; the word gives no strength. Where a sequence is shown, tags or fusion partners need not be part of it. Values belong to the molecule of their own block, whether it stands above or below them.
Experiments:
[1] = target: T1, GST–STBD1 NDel mutant (human (cDNA from HepG2 cells)) (UniProt O95210); assay: pull-down; GST–STBD1 proteins (or GST alone) immobilised on glutathione–sepharose beads, incubated with mouse liver lysate for 90 min at 4°C; washed three times with lysis buffer; Western blot; only the target purified
T1 sequence: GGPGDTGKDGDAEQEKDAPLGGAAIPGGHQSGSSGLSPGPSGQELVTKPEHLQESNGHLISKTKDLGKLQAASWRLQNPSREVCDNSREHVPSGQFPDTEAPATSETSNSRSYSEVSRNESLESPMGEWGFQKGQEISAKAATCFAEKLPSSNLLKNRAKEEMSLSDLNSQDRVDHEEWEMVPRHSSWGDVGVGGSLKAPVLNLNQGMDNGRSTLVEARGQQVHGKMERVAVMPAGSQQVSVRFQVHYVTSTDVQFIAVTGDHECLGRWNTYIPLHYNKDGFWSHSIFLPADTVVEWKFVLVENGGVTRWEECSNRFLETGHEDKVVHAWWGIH

By UniProt entry, the sequences of proteins in these tests, tags left out.
UniProt P35573: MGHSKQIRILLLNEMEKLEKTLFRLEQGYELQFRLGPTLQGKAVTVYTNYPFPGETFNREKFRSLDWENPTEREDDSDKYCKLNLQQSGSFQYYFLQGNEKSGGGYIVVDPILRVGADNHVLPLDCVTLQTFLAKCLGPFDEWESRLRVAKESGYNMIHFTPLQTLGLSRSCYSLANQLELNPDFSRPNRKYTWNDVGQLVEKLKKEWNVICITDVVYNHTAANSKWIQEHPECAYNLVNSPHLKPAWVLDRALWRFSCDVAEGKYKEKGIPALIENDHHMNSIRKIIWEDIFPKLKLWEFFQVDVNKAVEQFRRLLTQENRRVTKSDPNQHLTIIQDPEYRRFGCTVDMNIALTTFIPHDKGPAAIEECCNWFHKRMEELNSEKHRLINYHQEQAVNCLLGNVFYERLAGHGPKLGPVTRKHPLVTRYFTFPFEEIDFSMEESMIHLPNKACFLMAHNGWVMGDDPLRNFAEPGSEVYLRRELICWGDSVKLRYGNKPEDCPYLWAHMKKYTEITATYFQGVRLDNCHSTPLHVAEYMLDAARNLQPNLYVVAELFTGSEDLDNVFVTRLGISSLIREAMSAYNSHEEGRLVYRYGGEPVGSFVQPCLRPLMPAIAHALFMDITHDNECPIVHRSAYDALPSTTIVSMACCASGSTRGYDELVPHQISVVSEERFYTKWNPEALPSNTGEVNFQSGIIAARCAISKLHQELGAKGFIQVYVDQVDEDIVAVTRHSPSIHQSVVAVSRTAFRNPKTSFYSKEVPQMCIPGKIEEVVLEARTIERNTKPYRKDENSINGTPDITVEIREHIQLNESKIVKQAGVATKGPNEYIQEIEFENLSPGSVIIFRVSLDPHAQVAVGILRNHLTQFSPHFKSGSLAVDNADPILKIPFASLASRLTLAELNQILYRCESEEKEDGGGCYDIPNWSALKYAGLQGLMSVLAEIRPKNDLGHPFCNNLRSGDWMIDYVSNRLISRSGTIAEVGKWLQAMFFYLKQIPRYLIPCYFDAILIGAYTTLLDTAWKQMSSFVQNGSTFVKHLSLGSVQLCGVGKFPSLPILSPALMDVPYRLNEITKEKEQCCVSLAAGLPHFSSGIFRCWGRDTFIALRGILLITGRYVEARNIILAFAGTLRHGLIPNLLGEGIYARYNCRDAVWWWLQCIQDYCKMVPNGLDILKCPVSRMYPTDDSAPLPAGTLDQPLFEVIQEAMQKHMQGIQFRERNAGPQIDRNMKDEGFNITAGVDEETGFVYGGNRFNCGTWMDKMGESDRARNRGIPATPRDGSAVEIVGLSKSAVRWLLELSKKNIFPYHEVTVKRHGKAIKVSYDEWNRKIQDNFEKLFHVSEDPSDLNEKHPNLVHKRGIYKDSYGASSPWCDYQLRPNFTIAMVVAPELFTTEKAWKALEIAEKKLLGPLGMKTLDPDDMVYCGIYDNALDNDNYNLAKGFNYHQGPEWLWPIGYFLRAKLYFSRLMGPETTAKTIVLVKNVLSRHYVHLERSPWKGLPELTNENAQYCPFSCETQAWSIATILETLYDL
UniProt P70452: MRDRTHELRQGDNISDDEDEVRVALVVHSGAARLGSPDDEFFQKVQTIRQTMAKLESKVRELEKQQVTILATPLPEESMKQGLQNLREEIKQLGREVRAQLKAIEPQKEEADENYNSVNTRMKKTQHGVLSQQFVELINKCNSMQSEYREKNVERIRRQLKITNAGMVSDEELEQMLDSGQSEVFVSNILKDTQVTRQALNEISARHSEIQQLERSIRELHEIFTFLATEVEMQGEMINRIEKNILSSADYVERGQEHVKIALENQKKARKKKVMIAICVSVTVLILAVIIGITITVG
UniProt F8VPN4: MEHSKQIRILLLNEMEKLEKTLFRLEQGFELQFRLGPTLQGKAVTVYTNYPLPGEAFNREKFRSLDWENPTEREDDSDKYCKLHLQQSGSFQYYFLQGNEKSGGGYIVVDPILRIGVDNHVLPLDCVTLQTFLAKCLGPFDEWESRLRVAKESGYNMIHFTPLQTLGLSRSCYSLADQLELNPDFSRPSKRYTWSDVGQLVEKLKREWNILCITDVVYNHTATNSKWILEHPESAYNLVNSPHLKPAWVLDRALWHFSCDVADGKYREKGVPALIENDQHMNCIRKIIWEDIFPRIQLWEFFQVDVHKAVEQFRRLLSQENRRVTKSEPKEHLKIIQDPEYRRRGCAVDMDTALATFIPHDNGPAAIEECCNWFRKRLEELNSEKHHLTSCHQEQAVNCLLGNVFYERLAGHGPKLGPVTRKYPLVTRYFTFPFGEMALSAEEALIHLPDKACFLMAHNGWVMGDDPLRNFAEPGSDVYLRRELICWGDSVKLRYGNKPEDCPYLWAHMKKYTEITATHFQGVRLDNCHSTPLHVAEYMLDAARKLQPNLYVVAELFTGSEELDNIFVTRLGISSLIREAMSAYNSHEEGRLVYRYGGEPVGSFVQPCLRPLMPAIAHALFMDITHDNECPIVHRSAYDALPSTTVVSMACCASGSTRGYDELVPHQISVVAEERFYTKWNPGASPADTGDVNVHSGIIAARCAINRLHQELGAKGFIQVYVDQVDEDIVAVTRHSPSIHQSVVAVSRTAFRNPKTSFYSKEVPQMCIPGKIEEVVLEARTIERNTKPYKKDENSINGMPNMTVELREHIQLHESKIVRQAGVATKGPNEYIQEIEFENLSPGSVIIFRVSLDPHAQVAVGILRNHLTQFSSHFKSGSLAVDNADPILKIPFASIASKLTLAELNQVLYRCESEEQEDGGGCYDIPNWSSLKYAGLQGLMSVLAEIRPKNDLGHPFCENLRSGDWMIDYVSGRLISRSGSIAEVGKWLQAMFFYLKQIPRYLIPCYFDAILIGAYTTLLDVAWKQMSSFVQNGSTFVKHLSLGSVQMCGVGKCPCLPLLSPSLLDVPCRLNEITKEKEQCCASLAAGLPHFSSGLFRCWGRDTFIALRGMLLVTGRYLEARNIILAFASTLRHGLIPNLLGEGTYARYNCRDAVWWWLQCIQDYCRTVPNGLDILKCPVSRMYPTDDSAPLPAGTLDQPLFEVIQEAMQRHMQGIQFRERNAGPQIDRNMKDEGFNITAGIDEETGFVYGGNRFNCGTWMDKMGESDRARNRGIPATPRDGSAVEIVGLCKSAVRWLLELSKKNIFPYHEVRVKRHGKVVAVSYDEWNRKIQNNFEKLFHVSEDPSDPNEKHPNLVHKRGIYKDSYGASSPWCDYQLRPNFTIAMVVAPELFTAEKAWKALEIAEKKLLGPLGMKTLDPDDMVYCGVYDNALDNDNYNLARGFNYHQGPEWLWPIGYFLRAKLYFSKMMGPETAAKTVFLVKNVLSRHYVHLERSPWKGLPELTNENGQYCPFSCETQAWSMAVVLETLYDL

[2] = target: T2, FLAG-tagged GBE1 (glycogen branching enzyme 1) (UniProt Q04446); assay: co-IP; COS cells co-transfected with HA-STBD1 and FLAG-tagged constructs; anti-FLAG immunoprecipitates blotted; lysis buffer 25 mM Tris pH 7.5, 150 mM NaCl, 1% Triton X-100; 2 h at 4°C
T2 sequence: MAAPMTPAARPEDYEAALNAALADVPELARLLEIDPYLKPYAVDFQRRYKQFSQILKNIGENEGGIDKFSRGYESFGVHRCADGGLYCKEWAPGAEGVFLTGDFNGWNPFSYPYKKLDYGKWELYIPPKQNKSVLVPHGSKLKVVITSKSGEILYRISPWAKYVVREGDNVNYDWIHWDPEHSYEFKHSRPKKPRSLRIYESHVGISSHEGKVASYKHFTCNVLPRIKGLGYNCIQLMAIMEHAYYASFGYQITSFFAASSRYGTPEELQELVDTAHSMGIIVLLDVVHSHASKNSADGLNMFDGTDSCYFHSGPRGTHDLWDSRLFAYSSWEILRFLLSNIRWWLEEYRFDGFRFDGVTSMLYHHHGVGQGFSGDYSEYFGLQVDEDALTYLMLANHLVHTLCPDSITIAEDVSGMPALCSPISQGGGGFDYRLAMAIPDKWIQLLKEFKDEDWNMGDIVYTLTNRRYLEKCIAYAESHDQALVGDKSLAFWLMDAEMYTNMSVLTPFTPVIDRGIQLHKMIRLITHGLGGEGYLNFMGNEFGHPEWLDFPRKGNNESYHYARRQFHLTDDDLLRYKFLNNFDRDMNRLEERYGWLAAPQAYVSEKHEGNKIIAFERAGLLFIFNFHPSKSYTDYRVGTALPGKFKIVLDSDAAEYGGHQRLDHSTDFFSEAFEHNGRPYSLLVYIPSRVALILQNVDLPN

[3] = target: FLAG-tagged GDE (glycogen debranching enzyme) (UniProt P35573); assay: as above
[4] = target: T3, FLAG-tagged Laforin (UniProt O95278); assay: as above
T3 sequence: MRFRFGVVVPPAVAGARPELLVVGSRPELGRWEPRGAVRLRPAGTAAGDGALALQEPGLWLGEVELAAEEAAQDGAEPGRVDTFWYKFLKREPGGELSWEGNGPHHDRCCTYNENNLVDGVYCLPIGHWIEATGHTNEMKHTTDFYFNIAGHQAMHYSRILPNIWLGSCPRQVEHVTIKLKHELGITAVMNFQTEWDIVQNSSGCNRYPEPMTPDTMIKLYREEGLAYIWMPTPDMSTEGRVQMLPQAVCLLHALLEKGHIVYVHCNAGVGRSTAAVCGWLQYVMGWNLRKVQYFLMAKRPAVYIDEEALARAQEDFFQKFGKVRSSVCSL

[5] = target: T4, FLAG-tagged PTG (protein targeting to glycogen), Q9UQK1; assay: as above; conditions: remark: other sources report otherwise
T4 chain: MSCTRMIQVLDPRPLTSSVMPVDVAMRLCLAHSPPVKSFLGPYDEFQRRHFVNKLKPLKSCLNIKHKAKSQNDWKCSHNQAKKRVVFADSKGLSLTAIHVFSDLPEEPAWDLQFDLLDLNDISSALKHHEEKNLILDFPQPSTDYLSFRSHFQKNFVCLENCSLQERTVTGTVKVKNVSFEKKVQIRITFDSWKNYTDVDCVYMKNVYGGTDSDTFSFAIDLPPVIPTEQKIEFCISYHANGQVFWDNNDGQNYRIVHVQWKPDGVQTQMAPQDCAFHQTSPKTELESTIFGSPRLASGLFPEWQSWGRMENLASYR

- binding [1]: no binding
Molecule: endogenous STX4a (syntaxin 4a) of mouse liver (from UniProt P70452 1-298)

- binding [1]: binds
Molecule: endogenous GDE (glycogen debranching enzyme) of mouse liver (from UniProt F8VPN4 1-1532)

- binding [2]: binds
- binding [3]: binds
- binding [4]: binds
B1: HA-tagged STBD1 (starch-binding domain-containing protein 1), wild type (protein, UniProt O95210 1-358)
chain: MGAVWSALLVGGGLAGALFVWLLRGGPGDTGKDGDAEQEKDAPLGGAAIPGGHQSGSSGLSPGPSGQELVTKPEHLQESNGHLISKTKDLGKLQAASWRLQNPSREVCDNSREHVPSGQFPDTEAPATSETSNSRSYSEVSRNESLESPMGEWGFQKGQEISAKAATCFAEKLPSSNLLKNRAKEEMSLSDLNSQDRVDHEEWEMVPRHSSWGDVGVGGSLKAPVLNLNQGMDNGRSTLVEARGQQVHGKMERVAVMPAGSQQVSVRFQVHYVTSTDVQFIAVTGDHECLGRWNTYIPLHYNKDGFWSHSIFLPADTVVEWKFVLVENGGVTRWEECSNRFLETGHEDKVVHAWWGIH

- binding [5]: no binding
B2: HA-tagged STBD1 (starch-binding domain-containing protein 1), wild type, O95210 1-358 (protein)
chain: B1 chain

- binding [1]: binds
B3: endogenous Laforin of mouse liver (enzyme, UniProt Q9WUA5 1-330)
chain: MLFRFGVVVPPAVAGARQELLLAGSRPELGRWEPHGAVRLRPAGTAAGAAALALQEPGLWLAEVELEAYEEAGGAEPGRVDTFWYKFLQREPGGELHWEGNGPHHDRCCTYNEDNLVDGVYCLPVGHWIEATGHTNEMKHTTDFYFNIAGHQAMHYSRILPNIWLGSCPRQLEHVTIKLKHELGVTAVMNFQTEWDIIQNSSGCNRYPEPMTPDTMMKLYKEEGLSYIWMPTPDMSTEGRVQMLPQAVCLLHALLENGHTVYVHCNAGVGRSTAAVCGWLHYVIGWNLRKVQYFIMAKRPAVYIDEDALAQAQQDFSQKFGKVHSSICAL

From article PMC4076837
